Measurements as given in PMC4336329 (PLoS ONE, 2015).
The whole screen tested about 310,000 compounds, of which about 2,200 (0.71%) showed an effect of 50% or more. Effects have a minus sign here. The list shows a part of the results.

target: human ether-à-go-go-related gene (hERG) potassium channel (human, UniProt Q12809); assay: primary screen, population patch clamp on CHO cells stably expressing hERG
Sequence (Q12809 whole entry, looked up): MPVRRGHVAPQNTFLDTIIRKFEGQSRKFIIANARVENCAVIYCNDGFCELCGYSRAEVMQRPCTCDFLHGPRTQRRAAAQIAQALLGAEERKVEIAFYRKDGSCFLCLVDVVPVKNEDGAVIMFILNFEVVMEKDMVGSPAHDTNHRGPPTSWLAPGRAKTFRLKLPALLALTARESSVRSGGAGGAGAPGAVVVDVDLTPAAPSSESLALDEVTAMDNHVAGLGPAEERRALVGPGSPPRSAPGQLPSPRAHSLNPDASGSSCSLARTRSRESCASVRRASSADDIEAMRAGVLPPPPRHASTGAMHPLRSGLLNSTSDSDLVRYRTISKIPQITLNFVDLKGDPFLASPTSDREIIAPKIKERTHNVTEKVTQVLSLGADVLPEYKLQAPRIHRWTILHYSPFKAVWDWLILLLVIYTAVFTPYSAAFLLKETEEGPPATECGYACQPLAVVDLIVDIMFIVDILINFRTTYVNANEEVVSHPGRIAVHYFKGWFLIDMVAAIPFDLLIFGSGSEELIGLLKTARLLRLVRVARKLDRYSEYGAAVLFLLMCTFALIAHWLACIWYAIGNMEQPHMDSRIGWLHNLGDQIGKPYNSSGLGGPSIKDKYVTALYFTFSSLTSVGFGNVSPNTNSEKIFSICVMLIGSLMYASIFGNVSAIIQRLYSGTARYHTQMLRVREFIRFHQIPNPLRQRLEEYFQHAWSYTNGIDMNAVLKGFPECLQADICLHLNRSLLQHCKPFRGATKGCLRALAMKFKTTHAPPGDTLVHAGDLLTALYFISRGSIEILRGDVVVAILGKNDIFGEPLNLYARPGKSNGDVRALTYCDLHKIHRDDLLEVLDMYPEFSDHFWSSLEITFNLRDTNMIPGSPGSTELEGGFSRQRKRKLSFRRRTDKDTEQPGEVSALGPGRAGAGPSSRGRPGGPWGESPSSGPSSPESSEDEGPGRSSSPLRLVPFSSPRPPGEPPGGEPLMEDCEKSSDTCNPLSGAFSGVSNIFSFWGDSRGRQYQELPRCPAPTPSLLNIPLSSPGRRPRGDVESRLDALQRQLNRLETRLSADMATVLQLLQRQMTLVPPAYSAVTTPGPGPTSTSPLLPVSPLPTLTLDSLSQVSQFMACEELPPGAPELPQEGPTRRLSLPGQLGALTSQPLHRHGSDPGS

SMILES	hERG current change (%, negative = inhibition) at 1uM
COc1ccc(CC(=O)Nc2ccc(C(=O)NCC(C)C)cc2)cc1	7.15%
CCOc1ccccc1C(=S)NC1CCCCC1	13.4%
COc1ccc(Nc2nc(-c3ccc(OC)cc3)c(CCC(=O)O)s2)cc1	12.3%
O=C(c1cc2cc(F)ccc2[nH]1)N1CCN(C(=O)c2ccco2)CC1	-9.87%
Cn1cc(/C=C(\C#N)C(=O)Nc2cccc([N+](=O)[O-])c2)c2ccccc21	15.2%
CC(NC(=O)CCc1nnc(-c2ccc(-c3ccccc3)cc2)o1)c1nccs1 (stereo not drawn)	8.09%
Cc1nc(NC(=O)c2ccco2)sc1-c1csc(Nc2ccc(Cl)cc2Cl)n1	6.16%
Cc1cc(N2CCOCC2)nc(-c2ccc([N+](=O)[O-])cc2)n1	1.06%
O=C(CCN1C(=O)c2ccccc2C1=O)Nc1cccc(F)c1	-2.2%
Cc1ccccc1N(C(=O)CS(=O)CC(=O)Nc1ccc(F)cc1)C(C)C(=O)NC(C)(C)C (stereo not drawn)	12.8%
CCOC(=O)Nc1ccc2c(c1)N(C(=O)N(CC)CC)c1ccccc1CC2	8.26%
COCCNC(=O)CN1C(=O)C(C)N=C(c2ccccc2)c2cc(Cl)ccc21 (stereo not drawn)	-1.11%
N#Cc1ccc(Oc2ccc(S(=O)(=O)N3CCOCC3)cn2)cc1	-5.47%
Cc1ccc(NC(=O)CCc2nc3sc4c(c3c(=O)[nH]2)CCCC4)c(Br)c1	8.26%
Cc1cc(NC(=O)CSc2nc3c(sc4ccccc43)c(=O)n2CCc2ccccc2)n[nH]1	-17.9%
COC(=O)c1c(NC(=O)c2ccco2)sc(C)c1C	13%
Cc1cc(C)n(-c2nc(-c3ccc(Cl)cc3)cs2)n1	9.13%
COCCSc1ccccc1C(=O)Nc1ccc(S(=O)(=O)N2CCOCC2)cc1	8.1%
CCCCn1c(N)c(N(CC(C)C)C(=O)c2ccc(N3C(=O)CCC3=O)cc2)c(=O)[nH]c1=O	13.1%

SMILES	hERG current change (%, negative = inhibition) at 1uM
CCN(CC)C(=O)Cn1ccc(NC(C)=O)nc1=O	5.61%
N#CC1=C(N)Oc2c(ccc3cccnc23)C1c1cccnc1 (stereo not drawn)	8.14%
C/C(=N/N1CCN(c2ccccn2)CC1)c1cccc([N+](=O)[O-])c1	4.06%
O=C(OCc1ccc(F)cc1Cl)c1ccccn1	3.13%
CCOc1ccc(NS(=O)(=O)c2ccc(C(=O)NC3CCC(O)CC3)cc2)cc1 (stereo not drawn)	10%
O=S(=O)(Nc1ccccc1O)c1ccc(-c2ccccc2)cc1	8.2%
CCOc1ccc(-n2c(SCC(=O)N3CCC(C(=O)O)CC3)nc3ccccc3c2=O)cc1	15.4%
Cc1ccc(NC2=NCC(=O)N2Cc2ccc3c(c2)OCO3)cc1	0.368%
CCCn1c(/C=C/c2cc[n+](C)cc2)nc2ccccc21.[I-]	7.98%
Cc1cccc(C(C)C)c1NC(=O)c1c(-c2ccccc2)noc1C	18.1%
CCOC(=O)c1c(C)nc(C(Cl)(Cl)Cl)nc1N	3.58%
O=c1[nH]c(=S)n(C2CC2)c(O)c1C=NCC1CCCO1 (stereo not drawn)	4.61%
Cc1ccc(C)c(S(=O)(=O)NCCN2CCOCC2)c1.Cl	8.25%
c1ccc(-n2nnnc2Sc2n[nH]c(-c3ccncc3)n2)cc1	-11.8%
CCCc1nc(S(=O)(=O)Cc2ccc(Cl)cc2Cl)n[nH]1	7.72%
CCn1nc(C(=O)N2CCc3ccccc32)c2ccccc2c1=O	13.4%
c1ccc(N2CCN(c3ccccc3)C2c2cccs2)cc1	7.66%
CC(C)c1nc2cc(C(=O)N(C)C3CCOCC3)ccc2o1	7.18%
CC1CCN(C(c2ccc(N(C)C)cc2)c2nnnn2Cc2ccc(F)cc2)CC1 (stereo not drawn)	13%

SMILES	hERG current change (%, negative = inhibition) at 1uM
Cc1cccc(N2C(=O)CC(Sc3ccccc3C(=O)O)C2=O)c1 (stereo not drawn)	13.4%
COCCC(=O)N1CCC(Oc2ccc(C(=O)N(C)C(C)c3ccon3)cc2)CC1 (stereo not drawn)	10.5%
CCCCCCCCn1sccc1=O	3.4%
NC(=O)C1CCN(c2oc(/C=C/c3ccc(F)cc3)nc2S(=O)(=O)c2ccccc2)CC1	3.33%
O=C(O)CCC(=O)N1CCN(c2nc(-c3ccccc3)c3cc(Br)ccc3n2)CC1	7.25%
CC(C)(CO)NC(=O)c1ccc2nc(Cc3cccc(Cl)c3)oc2c1	10.6%
CCOc1ccc(-n2c(SCC(=O)Nc3nccs3)nnc2-c2ccoc2C)cc1	-35.1%
CC(C)n1cnnc1SCC(=O)Nc1ccc(N2CCCCC2)cc1	18%
CCC(CC)Nc1ccc(C(CC(N)=O)NC(=O)Cc2ccc(Br)cc2)cc1[N+](=O)[O-] (stereo not drawn)	3.24%
CCOc1ccc(N=C(/C(C(=O)C(=O)N2CCOCC2)=C(\O)c2ccccc2)c2ccccc2)cc1	18.4%
C=CCn1c(O)c(CN2CCOCC2)c(C)c(C#N)c1=O	10.4%
CCc1ccc(C(=O)/C=C/Nc2ccc(S(=O)(=O)Nc3cnc4ccccc4n3)cc2)cc1	16%
Cl.O=C(Oc1cccnc1)c1ccco1	4.52%
COc1ccccc1CCNC1C2CC3CC(C2)CC1C3 (stereo not drawn)	-2.24%
Cc1cc(C)c(S(=O)(=O)N2CCOC2CNC(=O)C(=O)NCCc2ccc(S(N)(=O)=O)cc2)c(C)c1 (stereo not drawn)	-8.68%
O=C(NC(=S)NCCC1=CCCCC1)c1ccc(Br)o1	15.9%
CCS(=O)(=O)N1CCCC(C(=O)NCC2CCCO2)C1 (stereo not drawn)	13.2%
CCOC(=O)C1=C(C)N=C2SC(C)C(=O)N2C1c1ccc(C(=O)OC)cc1 (stereo not drawn)	1.25%
CCOC(=O)/C(C(N)=NC(C)C)=C(\O)c1ccccc1	8.52%
